From publication PMC11149917, “Translational and Therapeutic Evaluation of RAS-GTP Inhibition by RMC-6236 in RAS-Driven Cancers” (Cancer Discovery, 2024)
This continues a long series; more values of the same kind are listed elsewhere.

Tested on: PRISM panel of 845 cancer cell lines
Assay: PRISM assay
Format: cell-based, human
Procedure: The PRISM cell set comprised 845 cell lines representing more than 45 lineages (see Supplementary Table S1 for cell line information), which largely overlapped with the Cancer Cell Line Encyclopedia; https://portals.broadinstitute.org/ccle). Cell lines were grown in RPMI without phenol red and supplemented with 10% or 20% FBS for adherent and suspended lines, respectively. Parental cell lines were stably infected with a unique 24-nucleotide DNA barcode via lentiviral transduction and blasticidin selection. After selection, barcoded cell lines were expanded and subjected to quality control (Mycoplasma contamination test, an SNP test for confirming cell line identity, and barcode ID confirmation). Approved cell lines were then pooled (20–25 cell lines per pool) based on doubling time similarity and frozen in assay-ready vials.
RMC-6236 was added to 384-well plates at 8-point concentration with 3-fold dilutions in triplicate. These assay-ready plates were then seeded with the thawed cell line pools. Adherent cell pools were plated at 1,250 cells per well, whereas suspension and mixed adherent/suspension pools were plated at 2,000 cells per well. Treated cells were incubated for 5 days, and then lysed. Lysate plates were collapsed together prior to barcode amplification and detection.
Each cell line's unique barcode is located in the 3′UTR of the blasticidin-resistance gene and therefore is expressed as mRNA. Total mRNA was captured using magnetic particles that recognize polyA sequences. Captured mRNA was reverse-transcribed into cDNA and then the sequence containing the unique PRISM barcode was amplified using PCR. Finally, Luminex beads that recognize the specific barcode sequences in the cell set were hybridized to the PCR products and detected using a Luminex scanner which reports the signal as a median fluorescent intensity (MFI).
• Each detection well contained 10 control barcodes in increasing abundances as spike-in controls. For each plate, we first create a reference profile by calculating the median of the log2(MFI) values across negative control wells for each of these spiked-in barcodes. • For each well, a monotonic smooth p-spline was fitted to map the spike-in control levels to the reference profile. Next, we transform the log2(MFI) for each cell barcode using the fitted spline to allow well-to-well comparisons by correcting for amplification and detection artifacts. • Next, the separability between negative and positive control treatments was assessed. In particular, we calculated the error rate of the optimum simple threshold classifier between the control samples for each cell line and plate combination. The error rate is a measure of the overlap of the two control sets and was defined as error = (FP + FN)/n, where FP is false positives, FN is false negatives, and n is the total number of controls. A threshold was set between the distributions of positive and negative control log2(MFI) values (with everything below the threshold said to be positive and above said to be negative) such that this value is minimized. Additionally, we also calculated the dynamic range of each cell line. […] Additionally, any cell line that had less than 2 passing replicates was also omitted for the sake of reproducibility. Finally, we computed viability by normalizing with respect to the median negative control for each plate.
For every gene with nonsilent mutations in at least four cell lines, we compared the AUC values between cells with and without those mutations using a t test. This analysis was carried out for (i) the full data set; (ii) excluding cell lines with nonsilent KRAS mutations; and (iii) excluding cell lines that have either KRAS or NRAS nonsilent mutations.

CCn1c(-c2cc(N3CCN(C)CC3)cnc2[C@H](C)OC)c2c3cc(ccc31)-c1csc(n1)C[C@H](NC(=O)[C@H]1C[C@@H]1C)C(=O)N1CCC[C@H](N1)C(=O)OCC(C)(C)C2 [RMC-6236]
RMC-6236: RevMed PRISM: AUC (SCC3_HAEMATOPOIETIC_AND_LYMPHOID_TISSUE): 0.4975
RMC-6236: RevMed PRISM: AUC (SCC25_UPPER_AERODIGESTIVE_TRACT): 0.6103
RMC-6236: RevMed PRISM: AUC (SCLC21H_LUNG): 0.8658
RMC-6236: RevMed PRISM: AUC (SF126_CENTRAL_NERVOUS_SYSTEM): 0.812
RMC-6236: RevMed PRISM: AUC (SF539_CENTRAL_NERVOUS_SYSTEM): 0.7786
RMC-6236: RevMed PRISM: AUC (SG231_BILIARY_TRACT, KRAS p.G12F): 0.4532
RMC-6236: RevMed PRISM: AUC (SH10TC_STOMACH, KRAS p.G12V): 0.644
RMC-6236: RevMed PRISM: AUC (SHMAC5_PROSTATE): 0.5238
RMC-6236: RevMed PRISM: AUC (SHP77_LUNG, KRAS p.G12V): 0.7702
RMC-6236: RevMed PRISM: AUC (SKGII_ENDOMETRIUM): 0.807
RMC-6236: RevMed PRISM: AUC (SKGI_ENDOMETRIUM): 0.6802
RMC-6236: RevMed PRISM: AUC (SKGT4_OESOPHAGUS, KRAS p.G12A): 0.383
RMC-6236: RevMed PRISM: AUC (SKM1_HAEMATOPOIETIC_AND_LYMPHOID_TISSUE, KRAS p.K117N): 0.2685
RMC-6236: RevMed PRISM: AUC (SKMEL5_SKIN): 0.8508
RMC-6236: RevMed PRISM: AUC (SKMEL28_SKIN): 1
RMC-6236: RevMed PRISM: AUC (SKMEL30_SKIN, NRAS p.Q61K): 0.4948
RMC-6236: RevMed PRISM: AUC (SKMES1_LUNG): 0.7404
RMC-6236: RevMed PRISM: AUC (SKNAS_AUTONOMIC_GANGLIA, NRAS p.Q61K): 0.3702
RMC-6236: RevMed PRISM: AUC (SKNBE2_AUTONOMIC_GANGLIA): 0.6065
RMC-6236: RevMed PRISM: AUC (SKNDZ_AUTONOMIC_GANGLIA): 0.892
RMC-6236: RevMed PRISM: AUC (SKNEP1_BONE): 0.827
RMC-6236: RevMed PRISM: AUC (SKNFI_AUTONOMIC_GANGLIA): 0.7227
RMC-6236: RevMed PRISM: AUC (SKNO1_HAEMATOPOIETIC_AND_LYMPHOID_TISSUE): 0.5954
RMC-6236: RevMed PRISM: AUC (SKN_ENDOMETRIUM): 0.7409
RMC-6236: RevMed PRISM: AUC (SKOV3_OVARY): 0.8252
RMC-6236: RevMed PRISM: AUC (SKPNDW_BONE): 0.7684
RMC-6236: RevMed PRISM: AUC (SKUT1_SOFT_TISSUE, HRAS p.R73C): 0.8832
RMC-6236: RevMed PRISM: AUC (SNGM_ENDOMETRIUM, KRAS p.G12V): 0.5921
RMC-6236: RevMed PRISM: AUC (SNU46_UPPER_AERODIGESTIVE_TRACT): 0.7626
RMC-6236: RevMed PRISM: AUC (SNU61_LARGE_INTESTINE, KRAS p.G12D): 0.3181
RMC-6236: RevMed PRISM: AUC (SNU119_OVARY): 0.759
RMC-6236: RevMed PRISM: AUC (SNU182_LIVER): 0.9962
RMC-6236: RevMed PRISM: AUC (SNU213_PANCREAS, KRAS p.G12V): 0.4211
RMC-6236: RevMed PRISM: AUC (SNU216_STOMACH): 0.7562
RMC-6236: RevMed PRISM: AUC (SNU245_BILIARY_TRACT): 0.845
RMC-6236: RevMed PRISM: AUC (SNU398_LIVER): 1
RMC-6236: RevMed PRISM: AUC (SNU410_PANCREAS, KRAS p.G12D): 0.7477
RMC-6236: RevMed PRISM: AUC (SNU423_LIVER): 0.8129
RMC-6236: RevMed PRISM: AUC (SNU489_CENTRAL_NERVOUS_SYSTEM): 0.962
RMC-6236: RevMed PRISM: AUC (SNU668_STOMACH, KRAS p.Q61K): 0.435
RMC-6236: RevMed PRISM: AUC (SNU685_ENDOMETRIUM): 0.9177
RMC-6236: RevMed PRISM: AUC (SNU869_BILIARY_TRACT, KRAS p.G12D): 0.5979
RMC-6236: RevMed PRISM: AUC (SNU878_LIVER): 0.869
RMC-6236: RevMed PRISM: AUC (SNU899_UPPER_AERODIGESTIVE_TRACT, HRAS p.G13R): 0.3744
RMC-6236: RevMed PRISM: AUC (SNU1066_UPPER_AERODIGESTIVE_TRACT): 0.5644
RMC-6236: RevMed PRISM: AUC (SNU1077_ENDOMETRIUM): 1
